# Measurements as given in the supplement of paper PMC3334620.
# Whole data set: some 33,000 sequences, median “E-score (-0.5 to 0.5)” near -0.016, cut for the highest 2% near 0.31. Some of the results follow.
# Target: Cst6 (UniProt P40535)
# Assay: PBM E-score (8-mer binding enrichment) (E-score (-0.5 to 0.5)); higher = stronger / more preferred TF binding; most listed sequences are background and not binding sites
# Conditions: protein concentration: 200 nM; construct: GST-DNA-binding domain
# Method in brief: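 The E-score, a modified Wilcoxon-Mann-Whitney statistic, was computed by the Universal PBM Analysis Suite for every ungapped eight-base word pooled with its reverse complement. Scans behind it were normalised with masliner after bound GST-tagged yeast transcription factors were detected with fluorescent anti-GST. The proteins, at about 100-200 nM, had been applied to universal all-10-mer Agilent arrays made double-stranded by primer extension.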
row,Sequence,PBM E-score
1,CATTAATG,0.122
2,CCACAGTA,0.122
3,ACGGGCAG,-0.0649
4,ATTTGTTA,0.22
5,GAGATTAA,0.0823
6,ACCCACAC,0.0699
7,GGGCGCTA,0.0186
8,ATCCCAAG,-0.137
9,CGTCCAAG,-0.249
10,ATCTTATC,0.156
11,TGTCTAAA,0.234
12,CCTGGGTC,-0.261
13,AGTTGATG,0.127
14,AAGTACAG,-0.124
15,ATCTGAAG,-0.147
16,AATCGTTC,0.0185
17,AAATTGCT,0.00285
18,CGCAGCAA,-0.0572
19,GACGCAGA,0.14
20,GAGTTAAA,0.129
21,GGAAGGAC,-0.177
22,CATAGATG,-0.156
23,GGAGAGCA,-0.196
24,GAGGGCGC,-0.0984
25,CTCAATAA,0.00148

row,Sequence,PBM E-score
1,AGTCCAAT,-0.0617
2,TCAACACA,0.288
3,GCGCGGCA,0.264
4,TACCGTAA,0.222
5,GCTATCGA,-0.0782
6,AAAGGGTC,-0.129
7,AGGGCACG,-0.183
8,GTAGTCCA,-0.0929
9,CTCCTCAC,-0.25
10,GATGAACA,0.0215
11,CTTGTTTC,0.125
12,ATCTTCAT,0.0326
13,ACCCTCTA,-0.257
14,ACATGGAT,0.163
15,AACTGCGT,0.0317
16,CATCTTTA,0.1
17,AAAATTAT,0.378
18,ATAGTCCC,-0.242
19,AACGACAC,-0.0292
20,ATCCGGAA,-0.0217
21,ATACGTTA,0.265
22,AACGATAG,0.0747
23,CTAGCCCC,-0.171
24,ATCAGAGC,0.0745
25,GCACTAGA,-0.197

row,Sequence,PBM E-score
1,CCTCGTGC,-0.118
2,CCTCGGAA,-0.105
3,CAAGCGAC,-0.0775
4,GCTTAGCA,-0.207
5,ACTCATAG,0.152
6,ACCTTGGC,-0.281
7,CAAACATG,0.0448
8,CTTGGTTC,0.0801
9,ACGTCGTC,0.199
10,CACAATAC,-0.0167
11,AGCCAAAA,0.0307
12,AGTTCGTA,0.0158
13,TGCGTCCA,-0.0683
14,CTTCCGCA,-0.209
15,ACATATCA,0.249
16,CTGGAAAG,-0.0799
17,CGAGTGGC,-0.0795
18,CTATGGAA,-0.0199
19,GTAGGAAC,-0.0341
20,GAATACCA,0.00536
21,AAAGGGGC,-0.196
22,AAGCCGGG,-0.136
23,TCCCTACA,-0.064
24,CGTTGTGA,0.0602
25,CCTCTCAC,-0.15

row,Sequence,PBM E-score
1,CCCAAGTC,-0.314
2,CACAGAAA,0.116
3,GACTATGA,0.0652
4,CGGCATAA,0.135
5,CTCAGGGC,-0.195
6,CTGCCTCC,-0.327
7,TTAACCAA,0.114
8,GAAACGCA,0.172
9,CATTCATA,0.181
10,ACCCTAAG,-0.176
11,AAAGCCTA,0.0532
12,TCTCTTCA,-0.11
13,ATGTGTTA,0.167
14,CTCCCCAG,-0.386
15,TAGGTGAA,0.0649
16,CTAGGGCA,-0.332
17,AGTCTCGC,-0.0217
18,AACGGCAA,0.251
19,GCGACCAA,0.0136
20,CGCGTAAA,0.187
21,ATGCATCC,-0.233
22,GAATCCTA,0.0178
23,CCTGCACA,-0.179
24,ATGCATAA,0.117
25,CCCGGTAC,-0.279

row,Sequence,PBM E-score
1,CTTGGTGC,-0.106
2,CTGTGCAA,-0.00223
3,CCGTGACC,-0.145
4,AACGGTGT,-0.15
5,GCAGTGAA,0.17
6,CAGTACTC,-0.183
7,CACACATA,0.0581
8,CCTGAGCG,-0.119
9,TACGTCAA,0.484
10,ATTCCTTA,-0.0647
11,ACCATTAA,0.253
12,AACCCAGA,-0.145
13,AACTAATG,0.158
14,GATTAGCC,-0.00016
15,CAATGCCG,0.105
16,TATTCTCA,0.122
17,AAATACGG,0.167
18,AATTTGCC,-0.0123
19,CTTCGACC,-0.123
20,ATACCAAT,-0.0495
21,CACATGAA,0.158
22,ATAAGAAC,0.248
23,TCTTCGAA,-0.0645
24,CTAAGAAC,0.029
25,AACTTATA,0.208

row,Sequence,PBM E-score
1,ATCAGCGG,-0.0295
2,CAGCACGG,0.0243
3,ACGAGTAG,0.0301
4,AGGCTCTC,-0.202
5,CCCTAGTC,-0.362
6,CCACCGTA,-0.0247
7,GAAGGCTC,-0.242
8,CTGACGCA,0.332
9,AGGCGCAA,0.0848
10,TTCCGCAA,-0.0874
11,ATCCGAAG,-0.0956
12,ATATCCCG,0.039
13,CCCGGACG,-0.0829
14,ATCACCAA,0.223
15,AGACCGCC,-0.199
16,CGCATTTA,0.179
17,CCCAGAGG,-0.294
18,ATCCCACC,0.0287
19,AGCAGTGC,-0.198
20,TTGCGCAA,0.0229
21,TAGGCGGA,-0.17
22,CGGTGGGC,-0.214
23,CAACCTTG,-0.004
24,AATTTACT,0.203
25,TAGGGTCA,-0.0703

row,Sequence,PBM E-score
1,ACATCGAC,0.0739
2,AACTTCGA,0.158
3,CTCAGATA,0.182
4,AGAACGTG,0.0642
5,AATAACAT,0.245
6,CTTATTGC,-0.0874
7,AAGTATGT,0.0609
8,CAGGCGCA,0.017
9,CTTCCGCC,-0.161
10,ATCATTGA,0.306
11,GTATGACA,0.323
12,ATGAGAGC,-0.0445
13,GAACTTAA,0.0707
14,TTAACGAA,0.224
15,AGGCACGC,0.0415
16,GTTTGCTA,0.0709
17,CCACTATC,-0.152
18,GTAACATA,0.0905
19,CTTGTAGA,-0.214
20,CGAACTAG,0.0382
21,CAGTTTCA,-0.0148
22,CGTCTATC,-0.0432
23,GTACCCAC,-0.165
24,CATAGTAC,0.0124
25,GAACCCTC,-0.366

row,Sequence,PBM E-score
1,GGTTCCGA,-0.119
2,AGCATTGC,-0.0787
3,GGGTACAA,-0.055
4,CGGCAAAG,-0.00661
5,ACGTTTCA,0.141
6,CGACCGGC,-0.127
7,ACCATCAC,0.143
8,GCGAACTA,0.0819
9,AAAATCCA,0.185
10,GACTACCC,-0.329
11,AATAGGCG,0.0415
12,AACTCTGT,0.0458
13,CGCCTACC,-0.109
14,AGACGTGC,0.013
15,AGCCTGTA,-0.142
16,GCGTAAGA,0.199
17,AACGGAGG,-0.125
18,AATCTGTA,0.0612
19,ATCACATC,0.176
20,GTCCTACA,-0.0568
21,ACTTGATC,0.105
22,GGACGTTA,0.174
23,AGCATAAG,-0.0844
24,AGACTGCT,-0.189
25,AGATCTGC,0.0314

row,Sequence,PBM E-score
1,GCGTTCCC,-0.223
2,AAACATCT,0.0978
3,GGTATCCA,-0.143
4,GTTGGTCA,0.163
5,AACTAGCA,-0.141
6,ACATCCTG,0.0542
7,AGTAATCG,0.118
8,AAACGCCG,0.36
9,AGTCTAAC,-0.146
10,ACCTCTGA,0.0406
11,GAGAGGGC,-0.369
12,GCAACACA,-0.0263
13,AACCATGT,0.0652
14,ACCGAATG,0.147
15,CATTTAAC,0.0726
16,CCCAAGGA,-0.139
17,CTCGCCAC,-0.137
18,GTATCGAC,0.0658
19,ATTCACCG,0.132
20,CAACGGGG,-0.0854
21,CCGTCAAG,-0.129
22,AACAATAA,0.204
23,ATCACCAT,0.294
24,AGTGATTC,0.112
25,ACGGTAAT,0.126

row,Sequence,PBM E-score
1,ACATCAGA,0.16
2,AAAGGCCC,-0.0654
3,AGCATTCA,-0.0134
4,GATGCATC,0.191
5,ATCCATAA,0.176
6,GTAGAGTA,0.0275
7,GGTCACAA,-0.0375
8,GACTAATC,0.0508
9,GTCCCAAC,0.082
10,CAAGGTGC,-0.0713
11,ACTAATTC,0.103
12,AACCTGGC,-0.199
13,CGAGATGA,0.074
14,CCCCTGGC,-0.364
15,CAGTGAAG,0.00753
16,ATCTTGGG,-0.0808
17,GTGTGACA,0.221
18,GGACGGCA,0.25
19,CGGATCGC,-0.025
20,AACTTTCT,0.091
21,ATTTCTCC,0.0767
22,ATAGTAGC,0.0615
23,AATGCGCC,0.00626
24,GGAAGGCA,-0.022
25,CCATTTTA,0.151

row,Sequence,PBM E-score
1,CGTGGCCA,-0.171
2,GTTGATAA,0.196
3,GGCCTCCA,-0.18
4,ACGGCTTC,0.0724
5,GAGAATGA,0.232
6,CGACCACG,0.0309
7,CTGCAGCC,-0.19
8,ATCGCCGC,0.186
9,GTCCGCGA,-0.173
10,AAGGTGCC,-0.136
11,AGTATGGC,-0.175
12,CTGACAAC,-0.0434
13,AGGTTTCG,-0.141
14,ATCAGGAC,-0.0693
15,AAGCTGAA,-0.125
16,ACTTGCCG,0.00801
17,ATCGAGTG,0.0765
18,GGAGCACC,-0.327
19,ATGATATA,0.31
20,CTACTCCC,-0.156
21,AGGTGTAT,0.11
22,ATAGCACA,0.0396
23,ACGGTTAC,0.104
24,CGTAAACG,0.132
25,CTTGGGAC,-0.246

row,Sequence,PBM E-score
1,CCGCAATC,0.00752
2,AGAGTCTC,-0.245
3,CCTTAACA,-0.00162
4,AGGGGATA,-0.17
5,ATTTAGTG,0.199
6,TAATAGCA,0.0705
7,GCCCCCGA,-0.373
8,ATTTCTTA,0.159
9,ACTGTTGG,-0.254
10,AGACGAAT,0.0634
11,CGATGAAG,0.0389
12,AAGCATCG,0.0512
13,ATCTTCCG,0.0604
14,ACCGATCT,-0.175
15,ATACAAAT,0.285
16,GCCAACGC,-0.0319
17,GATCAATC,0.0348
18,AAACAGGA,0.0722
19,CAGCGCTG,0.0487
20,CCGTAGGA,-0.0533
21,CCCTTTAG,-0.3
22,CTACTAGA,-0.00554
23,AAGACGAA,0.0158
24,TAATGCAA,0.209
25,ATCTCTCC,-0.126

row,Sequence,PBM E-score
1,CAAATATG,0.191
2,CTAACCAG,-0.086
3,ATACGAAG,0.102
4,AAATAAAC,0.259
5,CCGACAGC,-0.315
6,CTACCGTA,0.0736
7,ACCGTTTC,0.0295
8,AAGTCTGT,-0.0295
9,GACCGCCC,-0.326
10,CGGGTTGC,-0.00711
11,CTCAGCAC,-0.177
12,CACCAGCA,0.0999
13,ACGCAACA,0.276
14,GATCACCA,0.147
15,CCGGGGTC,-0.207
16,ATCAAGGC,-0.114
17,ATGGCTGG,-0.248
18,ACATCCGT,0.0894
19,GTTCCCTA,-0.169
20,ACTACGAA,0.114
21,GCTACCTA,0.0891
22,GTGATGCA,0.383
23,GTGGAGAA,-0.151
24,TACGCGTA,-0.0895
25,CCTTCGCA,-0.0803

row,Sequence,PBM E-score
1,CGGGTTGA,-0.14
2,CCTGGAAA,-0.0989
3,AAACGGCC,0.084
4,ATGGGTAC,0.0213
5,TAAAGCGA,0.0693
6,AACCATCT,-0.174
7,AGTTTAGG,-0.159
8,CACGATGC,0.0599
9,GAGCGGTA,-0.027
10,CTTCGTCC,-0.155
11,ACAAAAGA,0.29
12,AGTCCGCA,-0.0826
13,CGTCCGTC,-0.218
14,TCTTGTCA,0.2
15,CGATAATA,0.143
16,TAAATTTA,0.237
17,AACGTCCG,-0.144
18,GATCACTA,0.0963
19,AACGTATA,0.215
